# Measurements published in PMC12136788.
# This is one part of the list.
# B1: chr1:163112212:163112213:-_ENSG00000143248_ENST00000313961|hu_hu|hu_hu_hu_mus_False|28_58 (ssRNA)
# RNA: GGGAGUUCUACAGUCCGACGAUCUUUUAUUAUCAGUAAGAGUGAGUUACAUACUAGGCAAAGUAUUGGAUACAAUAUUCUAAAGAUAAACACUAUUGGUCCAGAAUUUAAAAUAUAAUGAGCGAAGUGCUGGCACAGGACUUACAACAGAGGAUUGAGCAUCA
# B2: chr7:73609574:73609575:+_ENSG00000106682_ENST00000353999|hu_hu|FALSE|FALSE (ssRNA)
# RNA: GGGAGUUCUACAGUCCGACGAUCUUGCUCCUUUUGAACGACUUCCUCUCUAGGCCUGGCACCCCCGAAGAUAGCAGAGUUGGGAUUGGCUACUUGAUUGAGGGGCGUCGCGACUGUUCGAGGUUUAAGCUGGAGUCGUGGUCUCAACAGAGGAUUGAGCAUCA
# B3: chr19:24183184:24183185:-_ENSMUSG00000024812_ENSMUST00000099558|mus_mus|FALSE|FALSE (ssRNA)
# RNA: GGGAGUUCUACAGUCCGACGAUCUGUGGCUGUAAAAAGAUGAGAACAGGUCUUUUUGAGCUUGUUGGCUUGAUCAAAUAACUUGCGAGAACUUUUAUUGGAUGUUGGACUCAACCUCUGCCUUAUGGUUUUAACACCUUGUCUCAACAGAGGAUUGAGCAUCA
# B4: 27472817_27473668_6071_CDS_ENSG00000077235_ENST00000561623|human|control|control (ssRNA)
# RNA: GGGAGUUCUACAGUCCGACGAUCGAAGAGCGAGACAGGCCUUGGCUUUCUCAGCCAGCGCUUCCGGAUGCAGCCGAGGGACUCCAGGCCCUGGAGCAACUCCAGCACGGCGACGGGCUGCAGGACCCCCUGGUAGUGGCGCAGCAACAGAGGAUUGAGCAUCA
# B5: chr16:53361121:53361122:+_ENSG00000177200_ENST00000398510|hu_mus|FALSE|FALSE (ssRNA)
# RNA: GGGAGUUCUACAGUCCGACGAUCGAGGCCUGAAACAAGGGGUAGACCACAAGGCAACACCAGCUAUAACUCUCUCAGGAACUACCAACACGUACUGGGAUAGCCUUUCAGCUGCAGCUUGAGUAAGUGGGACUGCAUUGACUUCAACAGAGGAUUGAGCAUCA
# B6: 88117509_88122337_1104_CDS_ENSMUSG00000001416_ENSMUST00000001452|mouse|control|control (ssRNA)
# RNA: GGGAGUUCUACAGUCCGACGAUCGCCUGCCCCUGUACCAACAUCAUCUUCUCUCAGUUCCUCAGGUCGGCUGACUAUCCGUGCCCCACAGGCUCUAGCAAUGCGAUUAUUGUCUGUUUUCCGGACUCUACGAAUGGCUGUGACCAACAGAGGAUUGAGCAUCA
# B7: chr16:94690093:94690094:+_ENSMUSG00000040785_ENSMUST00000117648|mus_hu|mus_mus_mus_hu_True|28_88 (ssRNA)
# RNA: GGGAGUUCUACAGUCCGACGAUCGGGCUGGGAUGACGGACACACAGAUCUUCCCAGAGGGGGAAAAAGUCUUAGUCGAUACUAAUUAAAAAGUGUUAAUGAUUUUUAUUACCAAAAUUACAUCUAUAAAAGAUGAAAAGCAAACAACAGAGGAUUGAGCAUCA
# B8: chr5:145543945:145543946:-_ENSG00000133706_ENST00000545646|hu_hu|hu_hu_hu_mus_True|8_18 (ssRNA)
# RNA: GGGAGUUCUACAGUCCGACGAUCCUGAACGGCCAGUGGUGGGAAAUAAUCAAGCCAGUGCUCUGCUUCAGAAAACUUCACUAUGUCGUCAUCAGAGAGCCCAAGGGAUUUCAUAAUGCCCCACUGGUAUUUAGAAGAUCCUGCCAACAGAGGAUUGAGCAUCA
# B9: chr2:114697599:114697600:+_ENSG00000115091_ENST00000536059|hu_hu|FALSE|FALSE (ssRNA)
# RNA: GGGAGUUCUACAGUCCGACGAUCGGAUUGUUCUGGAGGGAUUCCUACUUCUCGGUCUCUCAGCAGUUGCUGAAUAAAAUAUGUUAUAUCUCGUCCUGCGAUUGGAAUGUGUUUAAUACAGCUGCCAAUCACAUACCCUUCAGCCAACAGAGGAUUGAGCAUCA
# B10: 126699911_126700031_156_5pUTR_ENSMUSG00000074657_ENSMUST00000099172|mouse|control|control (ssRNA)
# RNA: GGGAGUUCUACAGUCCGACGAUCCAAAGCACCUUGAUGCUGCAUUCGUUGUUAGUCUCCGCCAUGGUGGUCGACGACGACGAGGGGCUGGGAGCGUCUCCGACUGCAAGGGUAGCGUGUACUCCGGAGGAAGGGGACGCUGGGCAACAGAGGAUUGAGCAUCA
# B11: chr11:4127340:4127341:+_ENSG00000167325_ENST00000300738|hu_mus|hu_hu_hu_mus_False|68_78 (ssRNA)
# RNA: GGGAGUUCUACAGUCCGACGAUCGGCAUAGUCAGGGUGCUUCGUGGUCAAGGUCGCAGCUGUUUCAGCAGCCAAAGUGUCCAGUUCCACUGUGGUGACCCCACUAUAUAGGCCUUGGAUUACUUUCAUGGUGAUCUGAGCAGGCAACAGAGGAUUGAGCAUCA
# B12: chr14:89307221:89307222:+_ENSG00000165533_ENST00000346301|hu_mus|hu_hu_hu_mus_False|38_108 (ssRNA)
# RNA: GGGAGUUCUACAGUCCGACGAUCUCCUGUCUGAUUAGUGCCAGGGAGCUUCAAAGAUGUGCCAGGGCGUGGGACCUGAGCAAUAGCAUUUUCAUCCAGCAUCAUUUCAGCAAUUCCUUCCUGGUCCACAUCAAUUUCAUCUAUCAACAGAGGAUUGAGCAUCA
# B13: chr15:52101961:52101962:+_ENSG00000128872_ENST00000249700|hu_hu|motif|central (ssRNA)
# RNA: GGGAGUUCUACAGUCCGACGAUCUAUUUUCCUAUUCACUUGUUUUAUUGCUACUAGGCAACUCAGGAACACUCAGCGGCGGAACAAAUUCUGGAAUUUGUUUAGUAACAAAUUACAGAGAAAAGAGGAAAAAAAAGACAAUGACAACAGAGGAUUGAGCAUCA
# B14: 39053079_39055272_849_3pUTR_ENSMUSG00000026753_ENSMUST00000028087|mouse|control|control (ssRNA)
# RNA: GGGAGUUCUACAGUCCGACGAUCGAUGAGUUUUAAGUUGUUGAUAUGAACAAACUCAUUUGUGACUUUUGCUCCAAAUAGCCAACCUGCUCCUCUGGGACUGAUUGCCCAAGUGUCCACAUCUUCAGGAUCUGACCACACCAACAACAGAGGAUUGAGCAUCA
# B15: chr3:169711627:169711628:+_ENSG00000008952_ENST00000337002|hu_hu|FALSE|FALSE (ssRNA)
# RNA: GGGAGUUCUACAGUCCGACGAUCUAAAAACAUACCCUUACAUGGUCUUAAUUUUAUGAAUUUAAGUGUUGAGAAAUAUCUAAAUAAUAAGUAACAAUUAAAAUAAAAUGUUUUAUUUGUAAAUUAUGUACAGAAUACACUUUACAACAGAGGAUUGAGCAUCA
# B16: chr17:65740002:65740003:+_ENSG00000130935_ENST00000581375|hu_hu|hu_hu_hu_mus_False|18_98 (ssRNA)
# RNA: GGGAGUUCUACAGUCCGACGAUCAACAAAUCUUUCUCUGGAUGAAGAACAGGAAGAUUCAUAUUAAAAAAAAUAUAUAUCCAUCAAGUUAGGUGUGGUGGCCACACCUUUACUCCCCACUUCAAUUGAGGUGGAUCUCUGAGUCAACAGAGGAUUGAGCAUCA
# B17: chr17:37088456:37088457:-_ENSMUSG00000036398_ENSMUST00000040402|mus_mus|FALSE|FALSE (ssRNA)
# RNA: GGGAGUUCUACAGUCCGACGAUCGUAACCGUUGUCUCAGUGACGGUCUCACUUAUCCCGGCCCCUGUCUCCGCCAUGGCUAAAGCGAAAAGCGAGAAAGCGGGAUGAGACACCCUUUCCUUUUUCUGAGCCUCAGAGAUCUAACAACAGAGGAUUGAGCAUCA
# B18: chr5:150025729:150025730:+_ENSMUSG00000041264_ENSMUST00000121416|mus_hu|FALSE|FALSE (ssRNA)
# RNA: GGGAGUUCUACAGUCCGACGAUCCACAAAUGGCUUCUUCUGAUUUUCUUUCAGAGACUGAUUCUGUAAUGACUUAGAUGUUGUGGUUUGAGAAUCUGCUGUAGUUUCUUUUUUCUUCAAAUUAGAUACCUGAGAUGUGACACGCAACAGAGGAUUGAGCAUCA
# B19: chr9:96327448:96327449:+_ENSG00000048828_ENST00000277165|hu_hu|FALSE|FALSE (ssRNA)
# RNA: GGGAGUUCUACAGUCCGACGAUCAGUCACGAAAGUUUCAGAACACAUUGUGUUGAUUUUGAAAGGUCAUUUGCAUCUUCUAUGAUUUCAACUUUAUCUCCAUUUAACUUGCUUGUAAAGUAUGUAUGAUGUAUUGUAUAUUUACAACAGAGGAUUGAGCAUCA
# B20: chrM:8634:8635:+_ENSG00000198899_ENST00000361899|hu_hu|FALSE|FALSE (ssRNA)
# RNA: GGGAGUUCUACAGUCCGACGAUCUUUGAGGUUAGUUUGAUUAGUCAUUGUUGGGUGGUGAUUAGUCGGUUGUUGAUGAGAUAUUUGGAGGUGGGGAUCAAUAGAGGGGGAAAUAGAAUGAUCAGUACUGCGGCGGGUAGGCCUCAACAGAGGAUUGAGCAUCA
# B21: 52289467_52289587_540_CDS_ENSMUSG00000026103_ENSMUST00000114513|mouse|control|control (ssRNA)
# RNA: GGGAGUUCUACAGUCCGACGAUCGCUGUUGCCGAACGCGUCGGUCUCCCCCGGGCUGUCCUUGGGGCCCGGGGCUGCGGGUGGCGACGCCCCUGGCUGCUGCUGCUGCUGCUGCUGCUGCUGUGGCGGCGUACCCCCCUUCCCCAACAGAGGAUUGAGCAUCA
# B22: chr7:7679991:7679992:-_ENSG00000106399_ENST00000396682|hu_hu|hu_hu_hu_mus_False|8_78 (ssRNA)
# RNA: GGGAGUUCUACAGUCCGACGAUCUGGGAUGAAUCUUUUCCAGCUUCCCCACGAAGCAGACAGGCUUGUCGAUAUACUGUGGUAACAUGCUGGCGUUGACGCGCGCUUUGGGGAGCUGCAUUAUGUCCACCAUGAUUCUGCCGCCAACAGAGGAUUGAGCAUCA
# Target: T1, UNK ZnF1-3 (human, UniProt Q9C0B0 31-174)
# T1 sequence: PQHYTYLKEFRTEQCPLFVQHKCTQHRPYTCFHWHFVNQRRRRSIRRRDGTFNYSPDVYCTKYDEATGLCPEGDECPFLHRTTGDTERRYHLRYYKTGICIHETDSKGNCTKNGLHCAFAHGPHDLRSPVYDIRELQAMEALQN
# Assay: nsRBNS (natural sequence RNA bind-n-seq); RBNS binding buffer (assumed for nsRBNS): 25 mM Tris pH 7.5, 150 mM KCl, 3 mM MgCl2, 0.01% Triton X-100, 500 ug/ml BSA, 20 U/ml SUPERase-In, 4 C; UNK is unkempt and MSI1 is Musashi-1; names of the RNAs are library labels; protein concentration not given here; high values mean tight binding
row,Binder,binding signal
1,B1,1.16 enrichment R
2,B2,0.473 enrichment R
3,B3,0.865 enrichment R
4,B4,0.676 enrichment R
5,B5,1.01 enrichment R
6,B6,0.863 enrichment R
7,B7,1.8 enrichment R
8,B8,0.928 enrichment R
9,B9,1.1 enrichment R
10,B10,0.66 enrichment R
11,B11,0.918 enrichment R
12,B12,0.971 enrichment R
13,B13,1.01 enrichment R
14,B14,1.11 enrichment R
15,B15,0.945 enrichment R
16,B16,1.3 enrichment R
17,B17,0.924 enrichment R
18,B18,0.895 enrichment R
19,B19,0.427 enrichment R
20,B20,1.23 enrichment R
21,B21,0.436 enrichment R
22,B22,0.617 enrichment R
